{"source": "paper PMC10579561", "about": "“Real flue gas CO2 hydrogenation to formate by an enzymatic reactor using O2- and CO-tolerant hydrogenase and formate dehydrogenase” (Frontiers in Bioengineering and Biotechnology, 2023)", "substrate": "NC(=O)c1ccc[n+]([C@@H]2O[C@H](COP(=O)(O)OP(=O)(O)OC[C@H]3O[C@@H](n4cnc5c(N)ncnc54)[C@H](O)[C@@H]3O)[C@@H](O)[C@H]2O)c1", "test": "purified protein", "type": "biochemical, Cupriavidus necator", "settings": "50% H2, 50% N2 (no O2 or CO), 200 mM Kpi pH 6.5, NAD+ 0-4 mM, free enzyme"}
{"protein": "ReSH (Cupriavidus necator H16) (protein, five bands HoxF 68,110 Da, HoxH 54,863 Da, HoxU 26,173 Da, HoxY 22,881 Da, HoxI 18,567 Da; with NAD-reducing hydrogenase HoxS subunit gamma (diaphorase); NAD-reducing hydrogenase HoxS subunit delta; NAD-reducing hydrogenase HoxS subunit beta; NAD-reducing hydrogenase subunit HoxI) MDSRITTILERYRSDRTRLIDILWDVQHEYGHIPDAVLPQLGAGLKLSPLDIRETASFYHFFLDKPSGKYRIYLCNSVIAKINGYQAVREALERETGIRFGETDPNGMFGLFDTPCIGLSDQEPAMLIDKVVFTRLRPGKITDIIAQLKQGRSPAEIANPAGLPSQDIAYVDAMVESNVRTKGPVFFRGRTDLRSLLDQCLLLKPEQVIETIVDSRLRGRGGAGFSTGLKWRLCRDAESEQKYVICNADEGEPGTFKDRVLLTRAPKKVFVGMVIAAYAIGCRKGIVYLRGEYFYLKDYLERQLQELREDGLLGRAIGGRAGFDFDIRIQMGAGAYICGDESALIESCEGKRGTPRVKPPFPVQQGYLGKPTSVNNVETFAAVSRIMEEGADWFRAMGTPDSAGTRLLSVAGDCSKPGIYEVEWGVTLNEVLAMVGARDARAVQISGPSGECVSVAKDGERKLAYEDLSCNGAFTIFNCKRDLLEIVRDHMQFFVEESCGICVPCRAGNVDLHRKVEWVIAGKACQKDLDDMVSWGALVRRTSRCGLGATSPKPILTTLEKFPEIYQNKLVRHEGPLLPSFDLDTALGGYEKALKDLEEVTR", "values": [{"measurement": "Km", "value": "1,179.4 ± 47.1 μM"}, {"measurement": "kcat", "value": "55.2 ± 0.82", "unit": "s⁻¹"}, {"measurement": "kcat/Km", "value": "46800 ± 2000", "unit": "M⁻¹ s⁻¹"}]}
